Assay results as given in PubChem BioAssay AID1347417 (National Center for Advancing Translational Sciences (NCATS), 2020).
Among all 120,000 compounds or so, about 5,300 (4.4%) were called active. Inconclusive means that the source gave no clear call. Such entries were picked first, then a sample of the others. The call rests on the fitted dose curve; in most records, active means well fitted inhibition curve with a large enough effect; inconclusive means small, poorly fitted or top-dose-only effect; inactive means no such curve, though single readings can be large or run the other way. A potency beside an inconclusive call is a rough fit, not a confirmed value.

Experiment: qHTS Primary assay for Inhibitors of Plasmodium falciparum Dd2 growth in vitro; further: nearly all actives have a fitted effect of over 65% in size;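 on activity, negative = inhibition: plate controls were DMSO vehicle for no effect and reference drug for full effect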
Conditions: P. falciparum Dd2 growth, SYBR Green, 72 h; activity, negative = inhibition: at 28.9 µM (top of the series) unless noted; series mostly up to 28.9 µM
Procedure, shortened: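 Readout: SYBR Green fluorescence, 485 nm excitation, 535 nm emission, after ~16 h lysis at 37C. Before that, Dd2-infected red cells (2.5% hematocrit) grew 72 h with compound, 29 uM top final concentration.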
Potency means the concentration at half of the fitted maximal effect; tags describe the fitted curve by direction and shape.

Structure (SMILES)	activity, negative = inhibition	Potency	outcome
COCCNC(=O)CC1Sc2ncccc2N(CC(C)C)C1=O (stereo not given)	inactive: 7.09%	–	–
CCCCN(C)C(=O)c1cccc2c1CCN2C(=O)Nc1ccc(OC)cc1	–	active: 14.1 µM	–
O=C(CCSCc1ccccc1)N1C[C@@H](CN2CCOCC2)[C@@H](CO)C1	inactive: -12.5%	–	–
Cc1ccc(C(=O)N2CCC23Cc2ccccc2NC3=O)cc1 (stereo not given)	–	inconclusive: 1.41 µM [inhibitor, partial curve, poor fit]	–
C[C@@]1(O)CCN(Cc2ccc(C#N)cc2)C[C@H]1N1CCCC1	inactive: 22.1% [at 5.79 µM]	–	–
Cc1ccc(CN2CCC(C3CCN(S(C)(=O)=O)CC3)C2)o1 (stereo not given)	–	–	inactive
N#Cc1cccc(CN2CC(CNC(=O)C3CCOCC3)C3(C2)CN(c2ccccc2)C3)c1 (stereo not given)	–	–	inactive
Cc1ccccc1C(=O)Nc1ccc2nc(SCC(=O)N3CCc4ccccc43)sc2c1	–	inconclusive: 0.562 µM [inhibitor, partial curve, poor fit]	–
COc1ccc(CNC(=O)c2ccc3c(c2)N(Cc2ccc(C)cc2)CCS3)cc1	–	inconclusive: 17.8 µM [inhibitor, single point]	–
Cc1[nH]nc(C(=O)N[C@@H]2COCC[C@@H]2OCc2ccccc2)c1Cl	–	inconclusive: 11.2 µM [inhibitor, single point]	–
CCc1ccc(C2=NN(CCC(=O)NCCc3ccc(OC)c(OC)c3)C(=O)CC2)cc1	–	inconclusive: 17.8 µM [inhibitor, single point]	–
CCCOc1ccc(-c2nonc2NC(=O)c2cc(OC)c(OC)c(OC)c2)cc1OCCC	–	inconclusive: 0.708 µM [inhibitor, full curve]	–
O=C(Cc1c[nH]c2ccccc12)N1CCCN(c2cc(-c3ccc(Br)cc3)[nH]n2)CC1	–	inconclusive: 1.78 µM [inhibitor, partial curve, poor fit]	–
COc1ccc(CC(=O)Nc2ccc3ncnc(N4CCCC4)c3c2)cc1Cl	–	inconclusive: 3.55 µM [inhibitor, single point]	–
CCc1ccc(NS(=O)(=O)c2cc(-c3cnc(C4CC4)o3)ccc2C)cc1	–	inconclusive: 11.2 µM [inhibitor, single point]	–
O=C1CCN(S(=O)(=O)c2ccccc2)CCCC(CO)CCN1 (stereo not given)	–	–	inactive
COC(=O)[C@H](CC1CCCCC1)NC(=O)[C@@H]1CN(C(=O)c2cccnc2)CCN1S(C)(=O)=O	inactive: -7.31%	–	–
Cc1ccccc1NC(=O)c1sc2nc3n(c(=O)c2c1C)CCC3	–	inconclusive: 11.2 µM [inhibitor, partial curve]	–
Cc1oc(-c2ccc(C(=O)NCCC(C)C)cc2)nc1CN1CCc2ccccc21	–	inconclusive: 12.6 µM [inhibitor, partial curve, poor fit]	–
CCc1ccccc1S(=O)(=O)N1CCN(C2CCN(Cc3ccccn3)C2=O)CC1 (stereo not given)	–	inconclusive: 17.8 µM [inhibitor, single point]	–
COc1ccccc1N1CCN(C(=O)C[C@@H]2O[C@H](CNC(=O)c3cccc(F)c3)[C@@H](O)[C@H]2O)CC1	–	–	inactive
COc1cccc(COC2CN(CC(C)C)C(=O)CN(C(=O)c3snnc3C)C2)c1 (stereo not given)	inactive: -11.2%	–	–

Structure (SMILES)	activity, negative = inhibition	Potency	outcome
O=C(c1cn[nH]c1)N1CCC(c2nc(CCOCC3CC3)no2)C1 (stereo not given)	–	inconclusive: 1.58 µM [inhibitor, full curve, poor fit]	–
COc1ccc2c(c1)Cc1sc(NC(=O)c3cccc(C)c3)nc1-2	–	inconclusive: 17.8 µM [inhibitor, single point]	–
Cc1cc(C)c(CNC(=O)c2nc(-c3ccc(F)cc3)cc3c2ccn3C(C)C)c(=O)[nH]1	–	inconclusive: 2.51 µM [inhibitor, partial curve, poor fit]	–
COC(=O)N1CCC(c2nn(-c3ccc(OC)cc3)c(=O)[nH]2)CC1	–	–	inactive
COc1cc(CN2CC=C(C)CC2)ccc1OCC(O)CN1CCSCC1 (stereo not given)	inactive: -13.7%	–	–
COc1ccc(CCNC(=O)CCS(=O)(=O)c2cc(Br)cc3c2N(C(C)=O)CC3)cc1OC	–	inconclusive: 3.98 µM [inhibitor, partial curve, poor fit]	–
O=C(Nc1cccc(-c2ccc(N3CCCC3)nn2)c1)c1c(F)cccc1F	–	inconclusive: 12.6 µM [inhibitor, single point]	–
Cc1ccc2cccc(NC(=O)c3ccc(OC(C)C)cc3)c2n1	–	inconclusive: 8.91 µM [inhibitor, single point]	–
O=C(NCc1ccc2c(c1)OCO2)c1ccc2c(c1)N(Cc1ccccc1F)C(=O)c1ccccc1S2	–	inconclusive: 15.8 µM [inhibitor, single point]	–
COc1ccc(C(=O)N[C@H]2CO[C@H]3[C@@H]2OC[C@@H]3n2nnnc2-c2cccc(OC)c2)cc1	–	inconclusive: 11.2 µM [inhibitor, single point]	–
Cc1ccccc1CN1C(=O)c2ccccc2S(=O)c2ccc(C(=O)NCc3ccc(Cl)cc3)cc21 (stereo not given)	–	inconclusive: 11.2 µM [inhibitor, single point]	–
CCC(=O)C1=C(c2ccc(F)cc2)N(C(=O)CC)n2cnnc2S1	–	active: 4.47 µM	–
CNC(=O)[C@@H]1C[C@@H](O)CN1C1CCN(C(=O)c2ccccc2OC)CC1	inactive: -22.4%	–	–
Cc1ccccc1CNC(=O)c1ccc2nc(SCc3ccc(F)cc3)n(C)c2c1	–	inconclusive: 11.2 µM [inhibitor, partial curve, poor fit]	–
CC(=O)N1CCC([C@@H]2CN(Cc3ccc(F)cc3Cl)C[C@H]2CO)CC1	–	inconclusive: 7.94 µM [inhibitor, single point]	–
O=C(N[C@@H]1CCOC[C@H]1Oc1cccc(F)c1)c1ccc(-n2ccnc2)cc1	inactive: -21.5%	–	–
COc1ccc(CN2C[C@@H]3OCC(=O)N(c4ccccc4)[C@@H]3C2)cc1	–	inconclusive: 25.1 µM [inhibitor, single point]	–
CCOc1ccc(-c2nn(-c3ccccc3)cc2C2NC(=O)NC(C)=C2C(=O)OC(C)C)cc1 (stereo not given)	–	inconclusive: 11.2 µM [inhibitor, single point]	–
COc1ncccc1-c1cc2c(ccn2Cc2ccncc2)c(N2CCOCC2)n1	–	inconclusive: 12.6 µM [inhibitor, single point]	–
Cn1nccc1C(=O)N1[C@H]2CC[C@@H]1c1cnc(-c3ccc(F)cc3)nc1C2	–	inconclusive: 10 µM [inhibitor, partial curve, poor fit]	–
COCCc1noc(C2CN(C(=O)C3CCOC3)C2)n1 (stereo not given)	inactive: 12.8%	–	–
CCOC(=O)c1ccc(NC(=O)C(CC)Sc2nc3ccncc3[nH]2)cc1 (stereo not given)	–	inconclusive: 17.8 µM [inhibitor, single point]	–

Structure (SMILES)	activity, negative = inhibition	Potency	outcome
CCN1C(=O)c2ccccc2Sc2ccc(NC(=O)N3CCN(c4cc(C)ccc4C)CC3)cc21	inactive: -12.3%	–	–
CCCNC(=O)Cc1csc2nc(C)c(-c3cc(C)n(-c4ccc(Cl)c(Cl)c4)n3)c(=O)n12	–	inconclusive: 1.41 µM [inhibitor, single point]	–
CC1(C)CN(C(=O)c2cnc(N3CCOCC3)nc2)C[C@]1(C)O	inactive: -6.35%	–	–
CC(C)(C)OC(=O)N1CCC(c2c(C(=O)NCCN3CCc4ccccc4C3)cnn2-c2ccc(F)cc2)CC1	–	inconclusive: 1.26 µM [inhibitor, single point]	–
CCn1ccc(C(=O)N2CCCC(c3nnnn3C)C2)n1 (stereo not given)	inactive: 3.31%	–	–
Fc1ccc(OC2CN(Cc3ccsc3)C2)c(F)c1	–	inconclusive: 11.2 µM [inhibitor, single point]	–
CC1=C(c2ccc(Cl)cc2)S(=O)(=O)N=C1N1CCN(c2cccc(C)c2C)CC1	inactive: -13.8%	–	–
COc1cccc(CN2C(=O)c3ccccc3Sc3ccc(C(=O)OCc4ccco4)cc32)c1	–	inconclusive: 4.47 µM [inhibitor, partial curve, poor fit]	–
CCOc1ccc(-c2cc3nc(C4CCN(C(=O)OC(C)(C)C)CC4)c(C(=O)Nc4cccc(CC)c4)cn3n2)cc1	–	active: 7.94 µM	–
Fc1ccc(NCc2ccccc2-c2nnc(-c3ccccc3Cl)o2)cc1	–	active: 12.6 µM	–
C[C@@H](NC(=O)Cc1ccccc1)c1c(-c2ccc(F)cc2)noc1C(=O)O	–	–	inactive [at 44.1 µM]
CC(C)NC(=O)C1COC2(CCN(C(=O)c3cccc(Cl)c3)CC2)N1C(=O)c1ccc(F)cc1 (stereo not given)	–	–	inactive
FC(F)(F)c1ccc2nc([C@H]3CCN(Cc4ccccn4)C3)[nH]c2c1	–	inconclusive: 2.51 µM [inhibitor, single point]	–
COc1cccc(CN2CCCC(c3nc(-c4cccnc4)no3)CCNC(=O)CC2)c1 (stereo not given)	–	inconclusive: 4.47 µM [inhibitor, partial curve, poor fit]	–
COCCN1C(=O)CCc2cc(NC(=O)c3ccc(Br)o3)ccc21	–	–	inactive
COCC(=O)NC1CCC12CCN(C(=O)c1ccc(C)nc1)CC2 (stereo not given)	–	inconclusive: 0.158 µM [inhibitor, full curve]	–
Cc1ccc2ncc(C(=O)c3ccc(C)c(C)c3)c(S(=O)(=O)c3ccc(F)cc3)c2c1	–	inconclusive: 17.8 µM [inhibitor, single point]	–
O[C@@H]1C[C@@H](c2nnc3n2CCN(Cc2ccccc2)C3)N(Cc2ccccc2)C1	–	inconclusive: 3.98 µM [inhibitor, single point]	–
CN(Cc1ccc(N2CCCCC2)cc1)C(=O)c1ccc2c(c1)C(O)CCCCCN2C (stereo not given)	–	inconclusive: 3.98 µM [inhibitor, full curve, poor fit]	–
COc1ccc(-c2nc(C(C)C)nc3c2CCN(C(=O)c2ccccc2Cl)CC3)cc1	–	active: 10 µM	–
CC1=NS(=O)(=O)N(Cc2ccccc2)C=C1C(=O)OCc1nc(-c2cccs2)no1	–	inconclusive: 17.8 µM [inhibitor, single point]	–
